# The list shows a part of the results.
# How the values were obtained:
# Assay in all cases: glycan array binding signal (z-score within array); higher = stronger binding
# Settings in all cases: glycan notation: IUPAC condensed, linker removed
# [1] = target: Gal(b1-3)GlcNAc(b1-3)Gal(b1-4)GlcNAc(b1-2)Man(a1-3)[Gal(b1-3)GlcNAc(b1-3)Gal(b1-4)GlcNAc(b1-2)Man(a1-6)]Man(b1-4)GlcNAc(b1-4)GlcNAc
# Outline: (§1)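 The binding signal is a Z-score computed within each array. Data were drawn from 3228 arrays in the Consortium for Functional Glycomics database, restricted to those with a known protein sequence. Scores were averaged over arrays of the same protein sequence at different concentrations or buffers, and over linkers, and negative values can be taken as non-binding.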
# [2] = target: Gal(b1-3)GlcNAc(b1-3)Gal(b1-4)GlcNAc(b1-2)[Gal(b1-3)GlcNAc(b1-3)Gal(b1-4)GlcNAc(b1-6)]Man(a1-6)[Gal(b1-3)GlcNAc(b1-3)Gal(b1-4)GlcNAc(b1-2)Man(a1-3)]Man(b1-4)GlcNAc(b1-4)[Fuc(a1-6)]GlcNAc
# Outline: as §1
# [3] = target: Gal(b1-3)GlcNAc(b1-3)Gal(b1-4)GlcNAc(b1-3)Gal(b1-4)GlcNAc(b1-2)[Gal(b1-3)GlcNAc(b1-3)Gal(b1-4)GlcNAc(b1-3)Gal(b1-4)GlcNAc(b1-6)]Man(a1-6)[Gal(b1-3)GlcNAc(b1-3)Gal(b1-4)GlcNAc(b1-3)Gal(b1-4)GlcNAc(b1-2)Man(a1-3)]Man(b1-4)GlcNAc(b1-4)[Fuc(a1-6)]GlcNAc
# Outline: as §1
# [4] = target: Gal(b1-3)GlcNAc(b1-3)Gal(b1-4)GlcNAc(b1-6)[Gal(b1-3)GlcNAc(b1-3)]Gal(b1-4)Glc
# Outline: as §1
# [5] = target: Gal(b1-3)GlcNAc(b1-3)Gal(b1-4)[Fuc(a1-3)]GlcNAc
# Outline: as §1
# [6] = target: Gal(b1-3)GlcNAc(b1-3)Gal(b1-4)[Fuc(a1-3)]GlcNAc(b1-6)[Gal(b1-3)GlcNAc(b1-3)]Gal(b1-4)Glc
# Outline: as §1
# [7] = target: Gal(b1-3)GlcNAc(b1-3)GalNAc
# Outline: as §1
# [8] = target: Gal(b1-3)GlcNAc(b1-6)Gal(b1-4)GlcNAc
# Outline: as §1
# [9] = target: Gal(b1-3)GlcNAc(b1-6)GalNAc
# Outline: as §1
# [10] = target: Gal(b1-3)GlcNAc(b1-6)[Gal(b1-3)]GalNAc
# Outline: as §1
# Gal(b1-3)GlcNAc6S = target: Gal(b1-3)GlcNAc6S
# Outline: as §1
# [11] = target: Gal(b1-3)[Fuc(a1-4)]GlcNAc
# Outline: as §1
# [12] = target: Gal(b1-3)[Fuc(a1-4)]GlcNAc(b1-2)Man
# Outline: as §1
# [13] = target: Gal(b1-3)[Fuc(a1-4)]GlcNAc(b1-2)Man(a1-3)[Gal(b1-3)[Fuc(a1-4)]GlcNAc(b1-2)Man(a1-6)]Man(b1-4)GlcNAc(b1-4)[Fuc(a1-6)]GlcNAc
# Outline: as §1
# [14] = target: Gal(b1-3)[Fuc(a1-4)]GlcNAc(b1-3)Gal(b1-3)[Fuc(a1-4)]GlcNAc
# Outline: as §1
# [15] = target: Gal(b1-3)[Fuc(a1-4)]GlcNAc(b1-3)Gal(b1-4)[Fuc(a1-3)]GlcNAc
# Outline: as §1
# [16] = target: Gal(b1-3)[Fuc(a1-4)]GlcNAc(b1-6)GalNAc
# Outline: as §1
# [17] = target: Gal(b1-3)[GlcNAc(b1-6)]GalNAc
# Outline: as §1
# [18] = target: Gal(b1-3)[Neu5Ac(a2-6)]GalNAc
# Outline: as §1
# [19] = target: Gal(b1-3)[Neu5Ac(a2-6)]GlcNAc(b1-4)Gal(b1-4)Glc
# Outline: as §1
# [20] = target: Gal(b1-3)[Neu5Ac(b2-6)]GalNAc
# Outline: as §1
# Gal(b1-4)Gal = target: Gal(b1-4)Gal
# Outline: as §1
# [21] = target: Gal(b1-4)GalNAc(a1-3)[Fuc(a1-2)]Gal(b1-4)GlcNAc
# Outline: as §1
# [22] = target: Gal(b1-4)GalNAc(b1-3)[Fuc(a1-2)]Gal(b1-4)GlcNAc
# Outline: as §1
# Gal(b1-4)Glc = target: Gal(b1-4)Glc
# Outline: as §1
# Gal(b1-4)Glc6S = target: Gal(b1-4)Glc6S
# Outline: as §1
# Gal(b1-4)GlcNAc = target: Gal(b1-4)GlcNAc
# Outline: as §1
# [23] = target: Gal(b1-4)GlcNAc(a1-6)Gal(b1-4)GlcNAc
# Outline: as §1
# Gal(b1-4)GlcNAc(b1-2)Man = target: Gal(b1-4)GlcNAc(b1-2)Man
# Outline: as §1
# [24] = target: Gal(b1-4)GlcNAc(b1-2)Man(a1-3)Man(b1-4)GlcNAc(b1-4)GlcNAc
# Outline: as §1
# [25] = target: Gal(b1-4)GlcNAc(b1-2)Man(a1-3)[Gal(b1-4)GlcNAc(b1-2)Man(a1-6)]Man(b1-4)GlcNAc(b1-4)GlcNAc
# Outline: as §1
# [26] = target: Gal(b1-4)GlcNAc(b1-2)Man(a1-3)[Gal(b1-4)GlcNAc(b1-2)Man(a1-6)]Man(b1-4)GlcNAc(b1-4)[Fuc(a1-6)]GlcNAc
# Outline: as §1
# [27] = target: Gal(b1-4)GlcNAc(b1-2)Man(a1-3)[Gal(b1-4)GlcNAc(b1-2)Man(a1-6)][Gal(b1-4)GlcNAc(b1-4)]Man(b1-4)GlcNAc(b1-4)[Fuc(a1-6)]GlcNAc
# Outline: as §1
# [28] = target: Gal(b1-4)GlcNAc(b1-2)Man(a1-3)[Gal(b1-4)GlcNAc(b1-2)Man(a1-6)][GlcNAc(b1-4)]Man(b1-4)GlcNAc(b1-4)[Fuc(a1-6)]GlcNAc
# Outline: as §1
# [29] = target: Gal(b1-4)GlcNAc(b1-2)Man(a1-3)[GlcNAc(b1-2)Man(a1-6)]Man(b1-4)GlcNAc(b1-4)GlcNAc
# Outline: as §1
# [30] = target: Gal(b1-4)GlcNAc(b1-2)Man(a1-3)[GlcNAc(b1-4)][Gal(b1-4)GlcNAc(b1-2)Man(a1-6)]Man(b1-4)GlcNAc(b1-4)GlcNAc
# Outline: as §1
# [31] = target: Gal(b1-4)GlcNAc(b1-2)Man(a1-3)[Man(a1-6)]Man(b1-4)GlcNAc(b1-4)GlcNAc
# Outline: as §1
# [32] = target: Gal(b1-4)GlcNAc(b1-2)Man(a1-6)Man(b1-4)GlcNAc(b1-4)GlcNAc
# Outline: as §1
binder,measurement,setting,value
"SGC, Q9M345 (protein) QNLNFTYNGFHPPLTDISLQGLATVTPNGLLKLTNTSVQKTGHAFCTERIRFKDSQNGNVSSFSTTFVFAIHSQIPTLSGHGIAFVVAPTLGLPFALPSQYIGLFNISNNGNDTNHIFAVEFDTIQSSEFGDPNDNHVGIDLNGLRSANYSTAGYRDDHDKFQNLSLISRKRIQVWIDYDNRSHRIDVTVAPFDSDKPRKPLVSYVRDLSSILLEDMYVGFSSATGSVLSEHFLVGWSFRLNGEAPMLSLSKLPKLPRFEPRRIS",glycan array binding signal (z-score),[1],0.678
same,glycan array binding signal (z-score),[2],5.28
same,glycan array binding signal (z-score),[3],4.72
same,glycan array binding signal (z-score),[4],-0.144
same,glycan array binding signal (z-score),[5],-0.337
same,glycan array binding signal (z-score),[6],-0.39
same,glycan array binding signal (z-score),[7],0.26
same,glycan array binding signal (z-score),[8],-0.457
same,glycan array binding signal (z-score),[9],1.42
same,glycan array binding signal (z-score),[10],0.571
same,glycan array binding signal (z-score),Gal(b1-3)GlcNAc6S,0.982
same,glycan array binding signal (z-score),[11],-0.349
same,glycan array binding signal (z-score),[12],-0.362
same,glycan array binding signal (z-score),[13],-0.06
same,glycan array binding signal (z-score),[14],-0.403
same,glycan array binding signal (z-score),[15],-0.357
same,glycan array binding signal (z-score),[16],2.08
same,glycan array binding signal (z-score),[17],-0.259
same,glycan array binding signal (z-score),[18],-0.36
same,glycan array binding signal (z-score),[19],0.844
same,glycan array binding signal (z-score),[20],-0.305
same,glycan array binding signal (z-score),Gal(b1-4)Gal,-0.291
same,glycan array binding signal (z-score),[21],-0.36
same,glycan array binding signal (z-score),[22],-0.323
same,glycan array binding signal (z-score),Gal(b1-4)Glc,-0.373
same,glycan array binding signal (z-score),Gal(b1-4)Glc6S,0.298
same,glycan array binding signal (z-score),Gal(b1-4)GlcNAc,-0.304
same,glycan array binding signal (z-score),[23],-0.393
same,glycan array binding signal (z-score),Gal(b1-4)GlcNAc(b1-2)Man,-0.343
same,glycan array binding signal (z-score),[24],-0.336
same,glycan array binding signal (z-score),[25],-0.388
same,glycan array binding signal (z-score),[26],-0.248
same,glycan array binding signal (z-score),[27],1.31
same,glycan array binding signal (z-score),[28],-0.355
same,glycan array binding signal (z-score),[29],0.364
same,glycan array binding signal (z-score),[30],0.193
same,glycan array binding signal (z-score),[31],-0.354
same,glycan array binding signal (z-score),[32],0.524
